# Reference: PubChem BioAssay AID651820 (National Center for Advancing Translational Sciences (NCATS), 2012)
# Out of some 340,000 compounds screened, about 12,000 (3.5%) were called active. The inconclusive results got no clear call from the source; some entries with a clear call stand among them for comparison. Calls come from the whole dose curve; as a rule, active = well fitted inhibition curve with a large enough effect; inconclusive = small, poorly fitted or top-dose-only effect, or another doubt; inactive = no such curve, though single readings can be large or run the other way. No potency is given beside an inconclusive call; the fits are too rough.
# Assay: qHTS Assay for Inhibitors of Hepatitis C Virus (HCV)
# Details: Huh7.5.1 HCVcc-Cre (HCVcc is cell-culture hepatitis C virus) infection, luciferase reporter, 44 h; activity change, negative = inhibition: at 41.8 µM (top of the series) unless noted
# How it was run: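 Cells seeded at 1,000/well and cultured 4 h, then compounds added followed by HCVcc-Cre virus (~0.5 moi). After 44 h further culture, luciferase substrate was added, plates held 15 min at room temperature, and luminescence read for 15 sec.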
# % is set by controls: 0 for no effect and ±100 for the full control effect; potency is the fitted concentration of half-maximal effect; tags give direction and shape of the fitted curve.
Structure (SMILES),Potency,"activity change, negative = inhibition"
CCCOc1cccc(C(=O)Nc2nnn(CCC)n2)c1,"inconclusive [inhibitor, single point]",–
CC1CN(c2nc(Nc3ccccc3F)nc(N)c2[N+](=O)[O-])CC(C)O1 (configuration not stated),"inconclusive [inhibitor, full curve, poor fit]",–
O=C(NNC(=O)C1CCN(S(=O)(=O)c2ccc(Cl)cc2)CC1)c1ccccc1O,"inconclusive [inhibitor, partial curve]",–
CC(=O)Nc1ccc(Nc2nnc(-c3ccc(O)cc3)c3ccccc23)cc1,"inconclusive [inhibitor, single point]",–
O=C(Nc1cccnc1)C1CC(=O)N(c2ccc(F)cc2)C1 (configuration not stated),–,inactive: 6.19%
Cc1ccc(C)c(N2CCN(C(=O)COc3cc(=O)n(C)c4ccccc34)CC2)c1,"inconclusive [inhibitor, single point]",–
CCCC(=O)Nc1ccc(Cl)c(NC(=S)NC(=O)C(C)C)c1,"inconclusive [inhibitor, single point]",–
CCc1nc(SCc2ccc(C(=O)OC)o2)c2c(=O)n(C)c(=O)n(C)c2n1,"inconclusive [inhibitor, full curve, poor fit]",–
Cc1ccc(NC(=O)c2cc(-c3ccccc3)nn2-c2ccccc2)cc1,"inconclusive [inhibitor, partial curve]",–
Cc1ccc(C(=O)Oc2ccc3c(c2)ncn3C)cc1,–,inactive: -7.01%
CC1CCCN(c2nc(N(C)c3ccccc3)nc(N)c2[N+](=O)[O-])C1 (configuration not stated),"inconclusive [inhibitor, partial curve]",–
Cc1ccc(C)c(N(C(=O)c2nsc(Cl)c2Cl)C(C(=O)NC2CCCC2)c2ccc(O)cc2)c1 (configuration not stated),"inconclusive [inhibitor, partial curve, poor fit]",–
COc1ccc2[nH]c3c(c2c1)CCN1C(=O)N([C@@H](C)C(=O)NCC2CCCO2)C(=O)[C@]31C (some centres not stated),"inconclusive [inhibitor, single point]",–
CN(c1ccc(OCCOc2ccccc2Cl)cc1)S(=O)(=O)c1ccccc1,"inconclusive [inhibitor, single point]",–
CCC(=O)NC(c1cccc([N+](=O)[O-])c1)c1c(OC(C)=O)ccc2ccccc12 (configuration not stated),–,inactive: -13.7%
O=C(CSc1nc(C2CC2)nc2ccccc12)Nc1ccc2c(c1)OCCO2,"inconclusive [inhibitor, single point]",–
Cc1c(C(=O)Nc2ccccc2N2CCN(C)CC2)oc2ccc(F)cc12,"inconclusive [inhibitor, partial curve]",–
O=C(Nc1ccc2c(c1)C(=O)NC2=O)c1cc(Cl)ccc1Cl,–,inactive: 0.845%
Cc1ccccc1-n1nc2c(c1NC(=O)c1cc3ccccc3oc1=O)CS(=O)(=O)C2,"inconclusive [inhibitor, single point]",–
COc1ccccc1CNC(=O)c1cc(=O)c2ccccc2o1,"inconclusive [inhibitor, single point]",–
Cc1ccc2c(c1)c(C)cc[n+]2Cc1ccccc1,"inconclusive [inhibitor, partial curve]",–

Structure (SMILES),Potency,"activity change, negative = inhibition"
Cc1ccc(NC(=O)CSc2nnc(CNC(=O)c3ccco3)n2C)cc1,–,inactive: 4.42%
O=[N+]([O-])c1c(NCc2ccccc2)cc(N2CCc3ccccc3C2)c2nonc12,active: 1.41 µM,–
O=C1C=C(c2ccccc2)C[C@@H](c2ccc3c(c2)OCO3)C1,"inconclusive [inhibitor, single point]",–
CC(=O)Oc1cc(O)c2c(=O)c(OC(C)=O)c(-c3ccc(OC(C)=O)c(OC(C)=O)c3)oc2c1,"inconclusive [inhibitor, partial curve, poor fit]",–
Cc1ccc(N(C)S(=O)(=O)c2cccc(C(=O)NCC(c3ccco3)N3CCCC3)c2)cc1 (configuration not stated),"inconclusive [inhibitor, single point]",–
COc1cc2c(-c3ccc4cc[nH]c4c3)c(-c3ccsc3)oc(=O)c2cc1OC,"inconclusive [inhibitor, partial curve]",–
COc1ccc(NC(=O)/C(Cl)=C(/Cl)S(=O)Cc2ccc(Cl)cc2)cn1 (configuration not stated),active: 7.94 µM,–
Cc1cc(OC(C)C(=O)NCC(O)c2ccccc2)c2c3c(c(=O)oc2c1)CCCC3 (configuration not stated),"inconclusive [inhibitor, full curve, poor fit]",–
Cc1c(CN2CCC(CO)(CCOc3ccccc3)CC2)[nH]c2c(Cl)cccc12,active: 14.1 µM,–
O=C(Nc1ccc(F)cc1)N1CCOCC1,–,inactive: 11%
COCCn1c(-c2ccc(Cl)cc2)cnc1SCC(=O)NCc1cccs1,"inconclusive [inhibitor, single point]",–
Nc1ccc2c(c1)C(=O)c1ccccc1-2,"inconclusive [inhibitor, single point]",–
CC(C)NC(=O)c1ccccc1S(=O)(=O)c1ccccc1C#N,–,inactive: -4.93%
CCCCCC(=O)Nc1cc(S(=O)(=O)N2CCCCC2)ccc1N1CCOCC1,"inconclusive [inhibitor, single point]",–
O=C(c1csc2c1CCCC2)N1CCN(c2cccc(C(F)(F)F)c2)CC1,"inconclusive [inhibitor, single point]",–
CC(C)(O)C(=O)Nc1ccc([N+](=O)[O-])c(C(F)(F)F)c1,"inconclusive [inhibitor, partial curve]",–
Cc1nc(C(=O)NC2CCCCC2)sc1C1(C)CC(c2cccc([N+](=O)[O-])c2)=NO1 (configuration not stated),"inconclusive [inhibitor, partial curve]",–
COCCNC(=O)CN(C(=O)CCC(=O)Nc1ccccn1)c1ccc(C)cc1C,–,inactive: 7.1%
COc1cc(NC(=O)c2cc(OC)c(OC)c(OC)c2)c2ncccc2c1,active: 10 µM,–
O=C(CN1c2cccc3cccc(c23)S1(=O)=O)Nc1ccccc1,"inconclusive [inhibitor, single point]",–
COc1cccc(C=NNC(=O)CCCC(=O)NN=Cc2cccc(OC)c2)c1,–,inactive: -26.8%
